Several values for one entry are separate records, joined by “and”; a condition that tells them apart may be missing. Equal entries are not always repeated. Structures can show the parent of a compound that is named as a salt. ± gives the standard deviation of the averaged measurements. Whole data set: some 2,600 compounds, median “MBP+ mature oligodendrocyte number relative to DMSO vehicle control” near -0.34, cut for the highest 2% near 13. This is one part of the list. Where only a bound is given, the exact number is not on record here.
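Further: 10 µM single dose with 3-day oligodendrocyte differentiation.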

The test system of this assay is jimpy (Plp1 jimpy) mouse iPSC-derived oligodendrocyte progenitor cells. In words: MBP+ mature oligodendrocyte number relative to DMSO vehicle control (SDs above negative control mean); higher = more surviving jimpy oligodendrocytes (rescue). Particulars: 10 µM; 3 days.
Regarding `Cc1c(Cl)cccc1Nc1ncccc1C(=O)O` [Clonixin], the “MBP+ mature oligodendrocyte number” value was -0.433.

Regarding `CCC[C@H](NC(=O)/C(C#N)=C/c1cccc(Br)n1)c1ccccc1` [Degrasyn (WP1130)], the “MBP+ mature oligodendrocyte number” value is less than -4.81.

Consider `CCOc1cc2ncc(C#N)c(Nc3ccc(OCc4ccccn4)c(Cl)c3)c2cc1NC(=O)/C=C/CN(C)C` [Neratinib (HKI-272)], for which the “MBP+ mature oligodendrocyte number” value was less than -4.81.

Regarding `Cc1cccc(Nc2cc(Cl)nc(SCC(=O)O)n2)c1C`, the “MBP+ mature oligodendrocyte number” value worked out at 2.37.

With `Nc1ncnc2c1ncn2[C@@H]1O[C@H](COP(=O)(O)CP(=O)(O)OP(=O)(O)O)[C@H](O)C1O` (stereo partly drawn) [alpha,beta-Methylene adenosine 5'-triphosphate dilithium], the “MBP+ mature oligodendrocyte number” value was -1.15.

Regarding `O=C(N/N=C/c1ccc([N+](=O)[O-])o1)c1ccc(O)cc1` [Nifuroxazide], the “MBP+ mature oligodendrocyte number” value was -2.72.

`NC(=O)c1ncn([C@@H]2O[C@H](CO)[C@@H](O)[C@H]2O)c1O` [Mizoribine]: the “MBP+ mature oligodendrocyte number” value was 0.458.

On to `Cc1cn([C@@H]2C[C@@H](O)[C@H](CO)O2)c(=O)[nH]c1=O` [Telbivudine], for which the “MBP+ mature oligodendrocyte number” value is -0.0169.

Take `Cc1ccc(C(=O)Nc2ccc(S(=O)(=O)O)c3cc(S(=O)(=O)O)cc(S(=O)(=O)O)c23)cc1NC(=O)c1cccc(NC(=O)Nc2cccc(C(=O)Nc3cc(C(=O)Nc4ccc(S(=O)(=O)O)c5cc(S(=O)(=O)O)cc(S(=O)(=O)O)c45)ccc3C)c2)c1` [Suramin sodium salt]: the “MBP+ mature oligodendrocyte number” value is -1.35.

For the molecule `CCc1cc(C(N)=S)ccn1` [Ethionamide], the “MBP+ mature oligodendrocyte number” value was determined as 2.14.

Regarding `OCc1ccc(O[C@@H]2O[C@H](CO)[C@@H](O)[C@H](O)[C@H]2O)cc1` [Gastrodin], the “MBP+ mature oligodendrocyte number” value was found to be 1.18.

On to `O=C(NC(NC(=S)Nc1ccc(F)c([N+](=O)[O-])c1)C(Cl)(Cl)Cl)C(c1ccccc1)c1ccccc1` (stereo not given), for which the “MBP+ mature oligodendrocyte number” value was -5.76.

Regarding `Cn1cc(C2=C(c3ccc(Cl)cc3Cl)C(=O)NC2=O)c2ccccc21`, the “MBP+ mature oligodendrocyte number” value was 22.4 and 12.6.

Turning to `O=c1c(-c2ccc(O)cc2)coc2cc(O)cc(O)c12` [Genistein], the “MBP+ mature oligodendrocyte number” value was 1.02 ± 1.6.

For the molecule `OCc1ccc(-c2ccc(-c3ccc(CO)s3)o2)s1`, the “MBP+ mature oligodendrocyte number” value is -5.93.

On to `O=C(O)c1ccc(Nc2ncc3c(n2)-c2ccc(Cl)cc2C(c2c(F)cccc2F)=NC3)cc1`, for which the “MBP+ mature oligodendrocyte number” value is -3.12.

Regarding `Cc1cc(N2CCOCC2)ccc1Nc1nc(NC2CCCCC2)c2[nH]cnc2n1`, the “MBP+ mature oligodendrocyte number” value was -1.7.

`C[C@H](NC(=O)Cc1cc(F)cc(F)c1)C(=O)N[C@@H]1C(=O)N(C)c2ccccc2-c2ccccc21`: the “MBP+ mature oligodendrocyte number” value is -2.44.

Consider `COC(=O)[C@H]1[C@H]2C[C@@H]3c4[nH]c5cc(OC)ccc5c4CCN3C[C@H]2C[C@@H](OC(=O)c2cc(OC)c(OC)c(OC)c2)[C@@H]1OC` [Reserpine], for which the “MBP+ mature oligodendrocyte number” value is -1.38 ± 2.8.

For the molecule `COc1cc2c(cc1OC)-c1cc3ccc(OC)c(OC)c3c[n+]1CC2` [Palmatine chloride], the “MBP+ mature oligodendrocyte number” value is 11.4.

The values above are taken from the supplement of paper PMC6135742.
